Patent publication US4335244A, “Monolactate salts of 4'-(9-acridinylamino)methanesulfon-m-anisidide” (Bristol-Myers Company, priority 1980, dated 1982)

Columns and labels:
[1] = cited from earlier work

Row | SMILES | Water-solubility (in words) | Water-solubility (in words, prior art forms) [1]
1 | COc1cc(NS(C)(=O)=O)ccc1Nc1c2ccccc2nc2ccccc12 [Example 10, m-AMSA D(-)-Monolactate Hemiacetonate] | sufficiently high water-solubility at room temperature | 
2 | COc1cc(NS(C)(=O)=O)ccc1Nc1c2ccccc2nc2ccccc12 [citrate, reference compound] | only slightly soluble in water | 
3 | COc1cc(NS(C)(=O)=O)ccc1Nc1c2ccccc2nc2ccccc12 [m-AMSA, 4'-(9-acridinylamino)methanesulfon-m-anisidide] |  | very limited solubility in water
4 | COc1cc(NS(C)(=O)=O)ccc1Nc1c2ccccc2nc2ccccc12 [Example 4, m-AMSA Mono DL-Lactate Acetone Solvate] | sufficiently high water-solubility at room temperature | 
5 | COc1cc(NS(C)(=O)=O)ccc1Nc1c2ccccc2nc2ccccc12 [Example 1, L(+)-Monolactate Hemiacetonate of m-AMSA] | sufficiently high water-solubility at room temperature | 
